In all, about 110,000 compounds went through this assay and about 230 (0.21%) showed an effect of 50% or more. This is one part of the list.
molecular target: DPAP1 (Plasmodium falciparum, UniProt Q8IIJ9); assay: primary screen, percent inhibition; read by cleavage of a fluorogenic dipeptide substrate; higher = more effect of the substance; parameters: species or system P. falciparum D10 trophozoite lysates; single well
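Further: 30 min substrate incubation versus DMSO and 10 µM JCP410 controls.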

Chain of DPAP1 (Q8IIJ9 whole entry, looked up): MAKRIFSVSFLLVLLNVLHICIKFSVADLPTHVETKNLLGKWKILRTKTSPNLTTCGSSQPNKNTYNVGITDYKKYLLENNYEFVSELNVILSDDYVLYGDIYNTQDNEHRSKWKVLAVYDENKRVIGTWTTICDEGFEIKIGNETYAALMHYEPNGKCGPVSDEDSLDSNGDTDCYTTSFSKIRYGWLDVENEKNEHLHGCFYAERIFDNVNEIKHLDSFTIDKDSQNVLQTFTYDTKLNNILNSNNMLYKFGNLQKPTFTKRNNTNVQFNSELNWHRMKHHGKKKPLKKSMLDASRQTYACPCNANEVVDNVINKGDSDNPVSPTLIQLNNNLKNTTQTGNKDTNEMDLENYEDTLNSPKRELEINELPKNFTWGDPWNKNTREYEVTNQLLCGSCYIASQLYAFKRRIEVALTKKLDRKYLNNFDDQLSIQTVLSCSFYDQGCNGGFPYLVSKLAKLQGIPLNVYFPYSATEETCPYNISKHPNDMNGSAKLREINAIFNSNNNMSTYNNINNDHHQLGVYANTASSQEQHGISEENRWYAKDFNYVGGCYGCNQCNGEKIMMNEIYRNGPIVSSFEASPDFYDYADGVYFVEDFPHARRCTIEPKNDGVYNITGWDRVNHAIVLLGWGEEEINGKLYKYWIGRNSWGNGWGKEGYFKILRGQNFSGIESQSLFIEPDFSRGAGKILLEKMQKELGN

SMILES	% Inhibition @ 10 uM
Cc1ccc(C)c(NC(=O)c2cc3ccccc3o2)c1	4.32%
O=C(c1ccc2c(c1)OCO2)N1CCN(Cc2ccccc2)CC1	-2.85%
Cc1ccc(-c2nc(CS(=O)(=O)CC(=O)NCc3ccccn3)c(C)o2)cc1	1.55%
COCC(=O)Nc1ccc2ccccc2c1	0.634%
Cn1c(CNc2ccccc2)nc2ccccc21	3.9%
CCOC(=O)NC1(C(F)(F)F)C(=O)NC(C)=C1C#N (stereo not drawn)	-1.94%
Cc1cc(Cl)ccc1OCC(=O)Nn1c(C)ccc1C	0.9%
O=C(CSc1nc2ccccc2s1)NCCCN1CCOCC1	14.6%
COc1ccc(OC)c(C2C3=C(O)CCCC3=NC(C)=C2C(=O)Nc2ccc(F)cc2F)c1 (stereo not drawn)	-0.413%
COc1ccc(CN2CCCN(C)CC2)cc1Br	3%
Cc1ccc(C(=O)N/C(=C\c2ccc(F)cc2)C(=O)NCc2ccncc2)cc1	1.52%
C=CCNC(=O)C1CCC(CNc2nc(S)nc3ccccc23)CC1 (stereo not drawn)	17%
COc1ccccc1CNC(=O)CCCn1sc2ccccc2c1=O	3.24%
CCN(CC)CCNC(=O)CS(=O)(=O)Cc1nc(-c2ccc(OC)cc2)oc1C	-3.7%
C=CCn1c(COc2ccc(Cl)c3cccnc23)nnc1SCC(N)=O	-3.33%
COc1ccc(NC(=O)COc2cccc(C(C)=O)c2)cc1	-3.92%
CCOc1cccc(/C=N\n2cnnc2)c1O	6.23%
CCCC(=O)Nc1c(O)nc2ccccc2c1O	31.7%
CCC(C)Nc1nc2c(S(=O)(=O)c3ccc(C(C)C)cc3)nnn2c2ccccc12 (stereo not drawn)	-10.5%
CCOC(=O)N1CCC(NC(=O)c2cc3n(n2)C(C(F)(F)F)CC(c2ccc(OC)cc2)N3)CC1 (stereo not drawn)	3.66%
CCN1CCN(C(c2cccc(F)c2)c2sc3nc(C)nn3c2O)CC1 (stereo not drawn)	-4.69%
CCCCNC(=O)C1CCN(C(=O)C2CCN(S(=O)(=O)c3ccc(C)cc3)CC2)CC1	-1.34%
CC1CCC(C(=O)NC(C(=O)NCCCN2CCOCC2)C(C)C)CC1 (stereo not drawn)	4.02%
CC(C)OCCCNC(=O)c1cc2c(=O)oc3ccccc3c2s1	2.73%
COc1ccc(C(=O)n2c(-c3ccco3)nc3ccccc32)cc1	3.72%
COc1ccc(-c2cc(C(=O)NCCC3=CCCCC3)[nH]n2)cc1	-2.37%

SMILES	% Inhibition @ 10 uM
CCC1CCCCN1CCCNC(=O)Cn1cc2c(n1)CCCC2 (stereo not drawn)	1.8%
Cc1c(Cl)cccc1NC(=O)CC(=O)Nc1cccc(Cl)c1C	6.51%
CC1C(=O)C(C)C(c2cc(Cl)ccc2O)NC1c1cc(Cl)ccc1O (stereo not drawn)	1.02%
Cc1ccc(-n2c(C)cc(C(=O)C(=O)Nc3nncs3)c2C)c(C)c1	0.655%
O=C(Nc1nn[nH]n1)C1CCCCC1	1.8%
Cc1ccc(C)c(S(=O)(=O)Nc2ccc(O)cc2)c1	-0.088%
CCN1CCCC1CNc1ncnc2c1cnn2-c1cccc(Cl)c1 (stereo not drawn)	2.07%
CCc1ccccc1CNC(=O)[C@H](CCSC)N1Cc2ccccc2C1=O	-6.03%
CC1CN(C(=O)C2CC3CCC2C3)C(C)CN1C(=O)C1CC2CCC1C2 (stereo not drawn)	2.13%
C=CCNC(=O)c1ccc(CN2CCc3ccccc3C2)cc1	1.39%
Cc1nn(CCCC(=O)NCCN2CCOCC2)c(=O)c2c1sc1ccccc12	-6.3%
COc1ccc(CNC(=O)CN(C)S(=O)(=O)c2cc(Br)cnc2N)cc1	-5.37%
Cc1ccc2[nH]c(SCC(=O)Nc3ccc(Br)cc3)nc2c1	-1.94%
CCCN1CCN(C(=O)C(c2ccccc2)N2Cc3ccccc3C2=O)CC1 (stereo not drawn)	7.62%
Cc1nonc1NCn1cnnn1	1.37%
O=C(c1ccc(N2C(=O)C3C4C=CC(C4)C3C2=O)cc1)N1CCCCCC1 (stereo not drawn)	-2.18%
O=C(NCC1(c2ccccc2)CCCC1)c1ccc(NC(=O)c2ccco2)cc1	0.161%
NC(=O)CC(=O)NC12CC3CC(CC(C3)C1)C2	0.827%
CCOC(=O)C1=c2s/c(=C/c3cccs3)c(=O)n2C(N)=C(C#N)C1c1cccs1 (stereo not drawn)	1.67%
O=C(O)c1cc(Cl)ccc1NS(=O)(=O)c1cccc2nsnc12	4.8%
C=CCSC1=C(C#N)C2(CCCCC2)C(C#N)C(=O)N1 (stereo not drawn)	-0.736%
O=C1CC(c2ccc(Cl)cc2)N2CCNC2=C1C(=O)Nc1ccccc1 (stereo not drawn)	-4.67%
O=C(c1ccc(CS(=O)(=O)c2c(Cl)cccc2Cl)o1)N1CCCCCC1	-1.28%
CC1CC(C)CN(CCCNC(=O)c2ccc(CNS(=O)(=O)c3ccc(F)cc3)cc2)C1 (stereo not drawn)	-0.971%
CCOC(=O)c1s/c(=N\C(=O)c2ccc(OC)c(OC)c2)n(C)c1C	4.67%
